Molecules are shown by their SMILES. Hit rate of the full screen: of about 310,000 compounds, about 2,200 (0.71%) showed an effect of 50% or more. Effects have a minus sign here. The list shows a part of the results.

For the test, the target named is human ether-à-go-go-related gene (hERG) potassium channel (human, UniProt Q12809). Put plainly: primary screen, population patch clamp on CHO cells stably expressing hERG.
human ether-à-go-go-related gene (hERG) potassium channel, sequence (Q12809 whole entry, looked up): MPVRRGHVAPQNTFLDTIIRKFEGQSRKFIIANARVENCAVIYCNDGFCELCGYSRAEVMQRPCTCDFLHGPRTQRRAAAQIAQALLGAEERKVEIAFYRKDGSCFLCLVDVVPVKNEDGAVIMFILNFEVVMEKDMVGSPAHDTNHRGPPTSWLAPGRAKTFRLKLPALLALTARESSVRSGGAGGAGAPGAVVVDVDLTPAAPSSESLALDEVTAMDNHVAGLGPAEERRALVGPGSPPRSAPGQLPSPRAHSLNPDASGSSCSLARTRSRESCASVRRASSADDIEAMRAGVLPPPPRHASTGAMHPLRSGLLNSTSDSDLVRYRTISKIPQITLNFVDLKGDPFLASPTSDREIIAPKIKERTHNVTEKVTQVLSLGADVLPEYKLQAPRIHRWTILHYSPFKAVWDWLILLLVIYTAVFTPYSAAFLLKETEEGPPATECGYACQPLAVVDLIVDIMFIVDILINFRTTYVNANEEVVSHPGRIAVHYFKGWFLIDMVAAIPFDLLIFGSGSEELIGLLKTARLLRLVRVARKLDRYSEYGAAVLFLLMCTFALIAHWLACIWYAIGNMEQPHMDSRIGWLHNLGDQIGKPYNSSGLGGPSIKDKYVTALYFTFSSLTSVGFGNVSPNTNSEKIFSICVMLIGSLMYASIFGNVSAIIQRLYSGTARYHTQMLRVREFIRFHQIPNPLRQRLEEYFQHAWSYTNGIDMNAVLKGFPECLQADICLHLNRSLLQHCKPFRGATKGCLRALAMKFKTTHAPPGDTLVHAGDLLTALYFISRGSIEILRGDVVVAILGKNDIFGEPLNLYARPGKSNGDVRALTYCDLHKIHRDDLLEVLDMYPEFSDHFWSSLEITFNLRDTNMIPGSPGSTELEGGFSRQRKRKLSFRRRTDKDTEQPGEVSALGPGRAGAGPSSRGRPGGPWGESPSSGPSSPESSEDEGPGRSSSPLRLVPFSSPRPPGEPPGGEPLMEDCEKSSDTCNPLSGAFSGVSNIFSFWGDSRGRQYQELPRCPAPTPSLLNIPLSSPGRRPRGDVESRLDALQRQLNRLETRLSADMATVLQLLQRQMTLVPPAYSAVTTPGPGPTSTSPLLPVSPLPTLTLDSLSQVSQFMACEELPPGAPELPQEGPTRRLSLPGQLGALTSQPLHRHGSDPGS
With `O=C(NNc1ccc(F)cc1)c1c(F)cccc1Cl`, the “hERG current change (%, negative = inhibition) at 1uM” value is recorded as 10.5%.
With `COc1ccccc1N1CCN(C(=O)C2CCCN(c3ncnc4c3nc3n4CCCCC3)C2)CC1` (centres unmarked) the figure was 3.38%.
With `O=C(/C=C/c1ccccc1)N(c1ccccn1)C1CCCCC1` the figure was 3.14%; with `CC(C)(C)c1ccc(/C=C2\Oc3c(ccc(O)c3CN3CCN(CCO)CC3)C2=O)cc1`, 12%.
On to `Cc1ccc(N2CCN(/N=C/c3sccc3C)CC2)cc1`, for which the “hERG current change (%, negative = inhibition) at 1uM” value is recorded as -1.94%.
As for `CCc1ccc(NC(=O)C[n+]2cc(-c3ccc(C)cc3)n3c2CCC3)cc1.[Cl-]`, the figure is -3.65%.
As for `Cc1cccc(NC(=O)COC(=O)c2ccc3c(=O)n4c(nc3c2)CCC4)c1`, the figure is 4.92%.
As for `CC(C)(C)n1ncc2c(=O)n(CC(=O)NCc3ccccc3Cl)cnc21`, the figure is 16.5%; as for `Cc1nnc(SCC(=O)Nc2nc(C(C)(C)C)cs2)s1`, -16.9%.
Turning to `CCOc1ccc(S(=O)(=O)n2cc(F)c(=O)[nH]c2=O)cc1[N+](=O)[O-]`, the “hERG current change (%, negative = inhibition) at 1uM” value is 16.9%.
With `CCCCCCCC(=O)NNC(=O)c1ccc(F)cc1` the figure was -9%; with `COCCNc1oc(-c2ccc(C)cc2)nc1C#N`, 12.3%.
As for `CN(C)c1cccc(C(=O)n2cc(C(=O)c3cc(F)ccc3O)cn2)c1`, the figure is 14.2%; as for `CCOC(=O)c1cnc(-n2nc(C)cc2C)nc1N(CC)CC`, -17.6%; as for `COc1ccc(CCN(C)CCC(=O)Nc2cc(C)ccc2C)cc1OC`, -21.1%.
As for `CCN1C(=O)C(CC(=O)Nc2ccc(OC)cc2)N(Cc2ccc(OC)c(OC)c2)C1=S` (centres unmarked), the figure is 10.8%.
Consider `Cc1ccc2c(c1)C1CN(C)CCC1N2C(=S)Nc1ccc(OC(F)F)cc1` (centres unmarked), for which the “hERG current change (%, negative = inhibition) at 1uM” value is recorded as -9.68%.
As for `COc1ccc([C@@H]2[C@@H]3C(=O)N(C(C)(C)C)C(=O)[C@@H]3[C@]3(Cc4ccccc4)C(=O)N(c4ccccc4)C(=O)N23)cc1`, the figure is 0.0887%.
With `CCOC(=O)c1cccc2c(=O)c(C(=O)c3ccc(Cl)cc3)c(C(=O)OC)[nH]c12` the figure was 11.9%; with `COc1ccc(CN(CC(=O)NCC2CCCO2)C(=O)CNS(=O)(=O)c2ccc(C)cc2)cc1` (centres unmarked), 7.64%.
`COc1ccc(/C=C/c2c([N+](=O)[O-])c(=O)n(C)c(=O)n2C)c(OC)c1`: the “hERG current change (%, negative = inhibition) at 1uM” value is 2.15%.
As to `N#Cc1ccc(Cl)cc1NC(=O)COC(=O)[C@H](CCC(N)=O)NC(=O)c1ccc(F)cc1`, the “hERG current change (%, negative = inhibition) at 1uM” value came to 7.69%.
With `Cc1ccc(C(=O)c2c[nH]c3c(F)cc(F)cc3c2=O)cc1` the figure was 2.64%.

These data come from publication PMC4336329 (PLoS ONE, 2015).
